Some of the results follow.
The compounds below were run on S. aureus RN4220 (assay: growth inhibition call (relative growth <= 0.2)). Conditions: 50 µM.

Growth inhibition call, inactive:
COc1ccc(S(=O)(=O)Nc2cccc3c2O[C@H](CN(C)S(=O)(=O)c2cccs2)[C@H](C)CN([C@@H](C)CO)C3=O)cc1, C/C=C1\[C@H](O[C@@H]2O[C@H](CO)[C@@H](O)[C@H](O)[C@H]2O)OC=C(C(=O)O)[C@H]1CC(=O)OCCc1ccc(O)cc1, CCN1CC[C@]2(CN(S(C)(=O)=O)CC23CCN(Cc2cnn(C)c2)CC3)C1=O, COC1=C(CC=C(C)C)C(=O)c2ccccc2C1=O, Cc1cc(C(=O)Nc2cccc3c2O[C@H](CN(C)C(=O)NC(C)C)[C@@H](C)CN([C@H](C)CO)C3=O)n(C)n1, C[C@@H]1CN([C@@H](C)CO)C(=O)c2c(c3ccccc3n2C)-c2ccccc2CO[C@H]1CN(C)Cc1ccc(-c2ccccc2)cc1, CCCCC(CC)COc1ccc(-c2nc(-c3ccc(OC)cc3)nc(-c3ccc(OCC(CC)CCCC)cc3O)n2)c(O)c1 (stereo unspecified), C[C@H]1CN([C@@H](C)CO)C(=O)c2cc(NC(=O)Nc3ccc(C(F)(F)F)cc3)ccc2O[C@@H]1CN(C)CC1CCCCC1, C[C@@H]1CCCCO[C@@H](CN(C)C(=O)NC2CCCCC2)[C@H](C)CN([C@@H](C)CO)C(=O)c2cc(NS(=O)(=O)c3ccccc3)ccc2O1, C[C@@H]1CN([C@@H](C)CO)C(=O)c2cccc(NC(=O)c3cnccn3)c2O[C@@H]1CN(C)C(=O)NC1CCCCC1, Cc1ccc(S(=O)(=O)N(C)C[C@H]2OCCCC[C@@H](C)Oc3ccc(NC(=O)c4ccccc4)cc3C(=O)N([C@@H](C)CO)C[C@H]2C)cc1

— the antibiotic and cytotoxicity screens of Wong et al. (2023)
